# Measured values published in article PMC4336329 (PLoS ONE, 2015).
# Out of some 310,000 compounds screened, about 2,200 (0.71%) showed an effect of 50% or more. The effect is printed as a negative number. The list shows a part of the results.
# Biological target: human ether-à-go-go-related gene (hERG) potassium channel (human, UniProt Q12809)
# Assay: primary screen, population patch clamp on CHO cells stably expressing hERG
# human ether-à-go-go-related gene (hERG) potassium channel, sequence (Q12809 whole entry, looked up): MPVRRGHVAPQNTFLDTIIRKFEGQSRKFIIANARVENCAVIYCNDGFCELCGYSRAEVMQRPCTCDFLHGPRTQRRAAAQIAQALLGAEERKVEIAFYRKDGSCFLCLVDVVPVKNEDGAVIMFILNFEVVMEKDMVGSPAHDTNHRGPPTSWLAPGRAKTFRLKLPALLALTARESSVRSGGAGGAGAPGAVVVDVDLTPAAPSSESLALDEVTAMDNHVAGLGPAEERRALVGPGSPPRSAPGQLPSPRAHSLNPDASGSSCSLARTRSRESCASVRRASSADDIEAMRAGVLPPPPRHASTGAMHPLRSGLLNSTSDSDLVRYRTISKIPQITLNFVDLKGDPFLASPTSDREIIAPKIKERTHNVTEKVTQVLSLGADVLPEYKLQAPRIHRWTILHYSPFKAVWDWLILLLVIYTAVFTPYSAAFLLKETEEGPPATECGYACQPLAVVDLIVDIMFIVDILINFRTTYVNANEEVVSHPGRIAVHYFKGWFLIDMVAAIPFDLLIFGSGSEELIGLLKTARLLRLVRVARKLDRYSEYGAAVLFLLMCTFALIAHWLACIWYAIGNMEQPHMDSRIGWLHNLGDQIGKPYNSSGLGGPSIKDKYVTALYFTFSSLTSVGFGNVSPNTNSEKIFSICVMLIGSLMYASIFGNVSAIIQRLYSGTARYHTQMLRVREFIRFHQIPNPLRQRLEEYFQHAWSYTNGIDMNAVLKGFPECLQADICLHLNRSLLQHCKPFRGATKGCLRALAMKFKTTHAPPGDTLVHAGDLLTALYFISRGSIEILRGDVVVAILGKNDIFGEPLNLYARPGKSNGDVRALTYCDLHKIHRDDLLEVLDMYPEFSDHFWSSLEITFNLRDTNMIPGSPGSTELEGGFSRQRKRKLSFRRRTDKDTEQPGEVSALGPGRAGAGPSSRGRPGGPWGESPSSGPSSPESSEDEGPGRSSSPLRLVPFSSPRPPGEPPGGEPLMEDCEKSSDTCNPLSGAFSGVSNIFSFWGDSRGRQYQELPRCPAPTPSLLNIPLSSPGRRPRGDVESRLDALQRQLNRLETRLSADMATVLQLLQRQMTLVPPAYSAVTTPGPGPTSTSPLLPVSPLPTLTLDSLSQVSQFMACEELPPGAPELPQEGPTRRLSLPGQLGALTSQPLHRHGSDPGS
row,Compound,"hERG current change (%, negative = inhibition) at 1uM [%]"
1,COc1ccccc1CC(=O)Nc1ccc(-c2nnc(-c3ccco3)o2)cc1,3.41
2,Cc1ccc(NC(=O)CNc2ccccc2CN(C)C2CCCCC2)cc1,0.499
3,O=C(CC1N=C2c3ccccc3N=C(SCc3ccc(F)cc3)N2C1=O)NCc1ccco1 (stereo not drawn),-43.6
4,Cc1cc(F)ccc1S(=O)(=O)Nc1ncnc2sc3c(c12)CCC3,12.8
5,COc1cc(F)cc(-c2ccc3c(c2)c(-c2cccs2)c(-c2cc(OC)cc(OC)c2)n3C)c1,12.5
6,CCOc1ccccc1C1c2[nH]c3ccccc3c2C[C@H]2C(=O)N(C3CC3)CC(=O)N12 (stereo partly drawn),10.5
7,O=C(c1ccccc1)N(Cc1ccco1)C1CCS(=O)(=O)C1 (stereo not drawn),14.8
8,COc1ccc(-c2cc(C(=O)NCc3ccc(Cl)cc3)no2)cc1OC,12.1
9,O=C(NCCc1c[nH]c2ccccc12)C(F)(F)C(F)F,6.27
10,COc1ccc(/C=C(\NC(=O)c2ccc([N+](=O)[O-])cc2)C(=O)N2CCOCC2)cc1,-54.9
11,O=c1[nH]nc(-c2ccccc2)cc1-c1ccccc1,8.32
12,O=C(Nc1ccc(S(=O)(=O)NCC2CCCO2)cc1)c1ccc(F)cc1 (stereo not drawn),13
13,O=C(CCSc1ccc(Cl)cc1)NC1CCCC1,16.3
14,CCCn1nc(C(=O)NCCN2CCOCC2)c2ccccc2c1=O,12.9
15,Cc1occc1C(=O)NCc1nc(-c2ccc(Cl)cc2)no1,16.3
16,CN(C(=S)NC(=O)CCCOc1ccc(Cl)cc1Cl)c1ccccc1,8.68
17,CC(C)O.CCCC1(CCC)NC(=O)N(CC(=O)N2CCN(C(=O)c3ccco3)CC2)C1=O,7
18,COC(=O)c1cc(NC(=O)CC2SC(=Nc3ccccc3)N(CCc3c[nH]c4ccccc34)C2=O)cc(C(=O)OC)c1 (stereo not drawn),14.6
19,COc1ccc(/C=N/NC(=O)c2cc(C)oc2C)cc1OCc1ccccc1,11.8
20,CN(CC1CCCO1)S(=O)(=O)c1ccc(C(=O)Nc2nnc(-c3ccccc3)o2)cc1 (stereo not drawn),12.7
21,COC(=O)CCC(C)N1CCC(Oc2ccc(C(=O)N3CCCC3)cc2)CC1 (stereo not drawn),4.49
22,CCCn1cc(SCC(=O)NCC2CCCO2)c2ccccc21 (stereo not drawn),13.7

row,Compound,"hERG current change (%, negative = inhibition) at 1uM [%]"
1,COc1ccc(/C=C/C(=O)NCC(=O)N/N=C/c2cc(Br)ccc2OC)cc1,5.79
2,Cc1cnc(NC(=O)CSc2nc3ccccc3c(=O)[nH]2)s1,13.8
3,O=C(O)C(=O)O.O=[N+]([O-])c1cccc(CN2CCN(Cc3ccco3)CC2)c1,10.8
4,Cc1nn(CC(=O)O)c(C)c1N,12.4
5,O=C(Nc1cccc(NC(=O)c2ccc(-c3cccc(Br)c3)o2)c1)c1ccco1,6.32
6,CCN(CC)CCOC(=O)c1c(C)n(C)c2ccc(OC)cc12.Cl,4.14
7,CCCOc1ccccc1NC(=O)Nc1ccccc1Cl,7.87
8,O=C(Nc1nnc(-c2ccco2)o1)c1cccc(Cl)c1,12.8
9,CC(=O)N/C(=C\c1cccs1)C(=O)O,12.8
10,COc1cc(CNc2cc(C)ccc2C)cc(OC)c1OC,8.88
11,COc1ccccc1N1C(=O)CC(Sc2ccccc2N)C1=O (stereo not drawn),5.02
12,COc1ccc(NC(=O)Nc2c(C)n(C)n(-c3ccccc3)c2=O)c(OC)c1,16.2
13,COc1ccccc1CNS(=O)(=O)c1ccc(S(=O)(=O)NC2CC2)cc1,9.68
14,O=C(C1CCCO1)N1N=C(c2ccc(Br)cc2)CC1c1ccco1 (stereo not drawn),2.44
15,CC(=O)Nc1cccc(C(=O)OCC(=O)Nc2nnc(-c3ccccc3)o2)c1,-2.38
16,C[C@H](NC(=O)c1nc[nH]c1C(=O)NC1CCN(C(=O)OC(C)(C)C)CC1)C(=O)OCc1ccccc1,0.735
17,COc1ccc(/C=C/C(=O)C23CC4CC(CC(C4)C2)C3)cc1CN1CCOCC1,5.62
18,O=C(Nn1cnnc1)c1ccccc1F,20.7
19,O=C(NCC1CCCN1S(=O)(=O)c1cccs1)C(=O)Nc1ccccc1 (stereo not drawn),19.1
20,COc1ccc(CC(=O)Nc2cc(Cl)ccc2N2CCCC2)cc1,14.7
21,O=C(c1ccc(Cl)cc1Cl)C1(n2cncn2)Oc2ccccc2C1O (stereo not drawn),-10.6
22,CCCN1CCN(CCCNC(=O)C2CCCN(c3nc4ccc(OCC)cc4s3)C2)CC1 (stereo not drawn),-28.9

row,Compound,"hERG current change (%, negative = inhibition) at 1uM [%]"
1,C=CCOC(=O)C1=C(C)NC(SCC(=O)Nc2nccs2)=C(C#N)C1c1cccs1 (stereo not drawn),4.19
2,Cc1[nH]n(-c2ccccc2)c(=O)c1C=Nc1ccc(S(=O)(=O)NC(N)=O)cc1,5.09
3,O=C(c1cccc(S(=O)(=O)N2CCN(c3ccccc3)CC2)c1)N1CCCC(C(F)(F)F)C1 (stereo not drawn),4.09
4,COCC(C)n1c(SCC(=O)NNC(=O)c2ccc(F)cc2)nc2ccccc2c1=O (stereo not drawn),-10.4
5,Cc1nc(C)c(C(=O)Nc2ccccc2)s1,5.97
6,Brc1ccccc1-c1nnc(-c2cccnc2)o1,9.86
7,CC(=O)c1cccc(NC(=S)NNC(=O)c2ccco2)c1,16.5
8,CO/N=C/C(C#N)=C/c1cc(C(=O)c2ccc(F)cc2)cn1C,16.2
9,CC(C)(C)OC(=O)N1CCC[C@H]1c1nnc(SCC(=O)Nc2ccc(Br)cc2)o1,4.94
10,Cn1c(CSc2nc3ccccc3s2)nnc1SCC(=O)NCCCN1CCOCC1,12
11,O=C(Nc1ccccc1)Nc1ccccc1-n1ccnc1,0.781
12,CCCn1c(SCC(=O)N2CCN(C(=O)c3ccco3)CC2)nc2ccccc2c1=O,-84.8
13,COc1ccc(N(C)C(=O)CCS(=O)(=O)c2cccc3nonc23)cc1,11.5
14,COC(=O)CNC(=O)CSc1nnc(C)c(=O)[nH]1,12.4
15,Cc1ccc(S(=O)(=O)NC(=NC(C)C(=O)O)c2ccccc2)cc1 (stereo not drawn),6.96
16,Cc1ccc(C(=O)NC(=S)Nc2ccc(N3CCOCC3)cc2)cc1C,3.84
17,CCOc1ccc(S(=O)(=O)Nc2ccc3c(c2)OCO3)cc1,11.5
18,O=C1N(C2CCCC2)C[C@@H]2C[C@@H](c3cccn3-c3nccs3)N3CCC[C@@]123,-60.3
19,CSc1ccccc1NC(=O)CCn1c(=O)sc2ccccc21,13.2
20,Cc1cc(C)n2nc(SCC(=O)N/N=C/c3cccc(Br)c3)nc2n1,8.63
21,CCCN(CCC)C(=O)c1cc(S(=O)(=O)N2CCCCC2)c[nH]1,-8.85
22,C[NH+](C)CC(C)(C)CNS(=O)(=O)c1cccc(Cl)c1Cl.[Cl-],7.97

row,Compound,"hERG current change (%, negative = inhibition) at 1uM [%]"
1,C/C(CC(=O)Nc1ccccc1)=N\NC(=O)COc1ccc(C)cc1Br,3.03
2,O=C(CNS(=O)(=O)c1ccccc1)NNC(=O)C(Cl)Cl,14.1
3,O=C(CSc1n[nH]c(=O)n1C1CC1)N1N=C(c2ccc(Cl)cc2)CC1c1ccco1 (stereo not drawn),5.88
4,Cc1ccc(C(=O)COC(=O)CN2C(=O)C3C4C=CC(C4)C3C2=O)cc1C (stereo not drawn),6.5
5,COC(=O)c1[nH]c2ccc(Br)cc2c1NC(=O)Oc1ccccc1,16.4
6,NS(=O)(=O)c1ccc(CCNC(=O)CSCc2ccccc2)cc1,9.64
7,O=C(O)c1cc(S(=O)(=O)NC(CO)C(O)c2ccc([N+](=O)[O-])cc2)ccc1Br (stereo not drawn),10.9
8,COc1ccc(-c2csc3ncnc(NCCN4CCOCC4)c23)cc1,0.221
9,O=C(NC12CC3CC(CC(C3)C1)C2)c1cc([N+](=O)[O-])ccc1N1CCOCC1,7.7
10,Cc1cc(C)cc(SCc2noc(C(=O)NCCCN3CCOCC3)c2C(=O)NCCCN2CCOCC2)c1,-1.87
11,O=C(CN(CC1CCCO1)C(=O)CNS(=O)(=O)c1ccc(Cl)cc1)NCc1ccccc1 (stereo not drawn),12.3
12,N#CC(Cc1ccccc1)(Cc1ccccc1)C(=O)NN,13.5
13,COC(=O)C1CCN(CC(=O)NC(=O)NC2CCCCC2)CC1,7.03
14,COc1ccc2c(c1)cc(C(=O)N[C@H](C(=O)N1CCC(C(=O)O)CC1)C(C)C)n2C,14.5
15,CN(C(=O)CSc1nc2ccccc2n1CCc1ccccc1)C1CCS(=O)(=O)C1 (stereo not drawn),-1.54
16,CC1(C)CCN(Cc2ccccc2)C1CC#N (stereo not drawn),12.4
17,CCOC(=O)CNC(=O)Cn1cnc2c(nnn2-c2ccccc2)c1=O,5.88
18,CC1=Nn2c(nnc2-c2ccccc2F)SC1,16.2
19,O=C(COC(=O)C1(c2ccccc2F)CCCC1)NCc1cccs1,7.08
20,CCC(c1nnnn1Cc1ccc(OC)cc1)N1CCN(c2ccc(OC)cc2)CC1.Cl (stereo not drawn),6.43
21,CC(C)CCN1CCC(C)(NC(=O)c2ccccc2)C1=O (stereo not drawn),5.15
